Converted amounts (≈) assume the structure as drawn.
What was measured:
[1] = tested on: aerobic organisms; test: Antibacterial activity against aerobic bacteria (in words); type: cell-based; settings: such as S. aureus, E. coli and K. pneumoniae
[2] = tested on: Clostridium chavoei A9561; test: microbe, parasite or virus in culture

| Compound | activity against usual aerobic organisms [1] | MIC [2] [µg/mL] |
| --- | --- | --- |
| COC(=O)C1C(C)OC2(C)CC(=O)C3OC12OC(C(C)/C=C(C)/C=C/C(=O)C1=C(O)CNC1=O)C3C (stereo not drawn) [Bu-2313B] | only moderate to weak activity | – |
| COC(=O)C1C(C)OC2(C)CC(=O)C3OC12OC(C(C)/C=C(C)/C=C/C(=O)C1=C(O)CN(C)C1=O)C3C (stereo not drawn) [Bu-2313A] | only moderate to weak activity | 0.2 (≈ 0.386 µM) |

Source: US4169096A, “Antibiotic compounds” (priority 1977, dated 1979)
